The campaign covered roughly 370,000 compounds. About 150 (0.041%) were called active. The inconclusive results got no clear call from the source; some entries with a clear call stand among them for comparison. Calls come from the whole dose curve; as a rule, active = well fitted inhibition curve with a large enough effect; inconclusive = small, poorly fitted or top-dose-only effect; inactive = flat fitted curve, though single readings scatter. Potencies of inconclusive entries are left out as doubtful fits.
Molecular target: Beta-lactamase (Escherichia coli (strain K12)) (UniProt P00811)
Experiment: qHTS Inhibitors of AmpC Beta-Lactamase (assay with detergent); note: nearly all actives have a fitted effect of over 25% in size;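 for activity change, negative = inhibition: 0% = no-compound wells and -100% = no-enzyme wells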
Conditions: AmpC hydrolysis of nitrocefin, absorbance 480 nm, 0.01% Triton; activity change, negative = inhibition: at 114 µM (top of the series)
Method in brief: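 20 mM phosphate pH 7.0 + 0.01% (detergent screen) or 0.0001% Triton X-100; 5.3 nM AmpC reagent; cpd preinc 15 min RT; nitrocefin (800 uM stock) to start; A480 q20 s × 4 min; Activity was normalised to no-enzyme and no-compound control wells.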
Potency is the fitted concentration of half-maximal effect; tags give direction and shape of the fitted curve.

UniProt P00811, sequence (P00811 whole entry, looked up): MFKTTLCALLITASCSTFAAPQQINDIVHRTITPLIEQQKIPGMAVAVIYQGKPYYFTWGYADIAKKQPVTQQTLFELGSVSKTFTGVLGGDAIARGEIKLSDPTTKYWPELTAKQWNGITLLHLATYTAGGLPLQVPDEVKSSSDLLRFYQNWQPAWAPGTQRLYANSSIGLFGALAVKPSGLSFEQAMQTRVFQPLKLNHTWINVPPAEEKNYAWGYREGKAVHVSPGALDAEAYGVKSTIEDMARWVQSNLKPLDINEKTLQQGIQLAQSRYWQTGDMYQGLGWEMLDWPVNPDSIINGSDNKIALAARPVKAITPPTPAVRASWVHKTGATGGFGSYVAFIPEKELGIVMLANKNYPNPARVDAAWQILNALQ

Compound	Potency	activity change, negative = inhibition
COc1ccc(F)cc1C(=O)C1CCCN(C(=O)c2ccccc2N(C)C)C1 (centres undefined)	inconclusive [inhibitor, partial curve]	–
CC1(C)C(=O)NCCN1C(=O)CCC(=O)O	inconclusive [inhibitor, partial curve]	–
Cc1ccc(OC(=O)C(C)c2cccc(C(=O)c3ccccc3)c2)cc1 (centres undefined)	inconclusive [inhibitor, single point]	–
CC(Sc1nc(-c2ccccc2)cc(C(F)(F)F)n1)C(=O)Nc1sc2c(c1C#N)CCC2 (centres undefined)	inconclusive [inhibitor, full curve]	–
C[C@H](/C=C/[C@@]1(O)[C@H](C)C[C@H](O)CC1(C)C)O[C@@H]1O[C@H](CO)[C@@H](O)[C@H](O)[C@H]1O	–	inactive: -10.9%
COc1ccc(-c2cc(C(F)(F)F)n3nc(C(=O)NCCCn4ccnc4)cc3n2)cc1	–	inactive: 0.59%
Cc1ccc(NC(=O)CCn2nc(C)c(S(=O)(=O)N3CCCCC3)c2C)cc1Cl	–	inactive: 3.51%
O=C(NC1CCOC1)c1ccc(OC2CCN(CCc3ccccc3)CC2)cc1 (centres undefined)	–	inactive: 1.58%
COc1ccccc1N1CCN(C(=O)c2ccccc2Oc2ccccc2)CC1	–	inactive: 6.49%
CCCc1nnc(NC(=O)c2cccc(OC)c2)s1	inconclusive [inhibitor, full curve, poor fit]	–
CN(C)c1ccc(C2CC(c3ccccc3)=Nc3nc(-c4ccccc4)cn32)cc1 (centres undefined)	inconclusive [inhibitor, partial curve, poor fit]	–
COc1ccc(Cl)cc1NS(=O)(=O)c1ccc(S(=O)(=O)N2CCCC2)cc1	inconclusive [inhibitor, partial curve, poor fit]	–
O=C(Cc1cc(=O)[nH][nH]1)N/N=C/c1c(Cl)cccc1Cl	inconclusive [inhibitor, partial curve, poor fit]	–
CCOc1ccc(-c2n[nH]c(C)c2Oc2ccccc2OC)c(O)c1	inconclusive [inhibitor, partial curve, poor fit]	–
Cc1ccc(C(=O)Nc2cnc3ccccc3c2)cc1	–	inactive: -5.57%
COc1ccc(Cn2c(=O)n(-c3ccccc3C)c(=O)c3c4c(sc32)CN(C(C)=O)CC4)cc1	inconclusive [inhibitor, partial curve]	–
Cc1cccc(C(=O)NNC2=CC(=O)CC(C)(C)C2)c1O	–	inactive: -1.41%
Cc1ccc(CN2C(=O)CN(C3CCC(C)CC3)C(=O)C2c2ccc(F)cc2)cc1 (centres undefined)	–	inactive: -5.91%
O=C(c1cccc(F)c1)N1CCC(N2CCCCCC2)CC1	inconclusive [inhibitor, full curve, poor fit]	–
